Where “and” joins values, the source holds several entries; their conditions need not be identical. Equal values may be shown once. The full ranking holds about 13,000 compounds; the median of “IFI” is about 4, and the highest 2% start at about 17. Some of the results follow.
Assay: GSK_TCMDC: Inhibition Frequency Index (IFI). The number of non-kinase HTS assays where a compound showed > 50 % inhibition, expressed as a percentage of the number of such assays in which the compound was tested (-0 is zero)
Assay type: functional

SMILES	IFI
CC[C@H]1CN2CC[C@H]1C[C@H]2[C@H](O)c1cc(-c2cccc(F)c2)nc2ccc(OC)cc12	5.44%
O=C(c1cc(C(F)(F)F)cc(C(F)(F)F)c1)N1CCC(CCN2CCC3(CC2)C(=O)NCN3c2ccccc2)CC1Cc1ccc(Cl)c(Cl)c1 (stereo unspecified)	20%
COc1ccc(CCNCc2ccc3nc(N)cc(C)c3c2)cc1	2.16%
CCCCCC(C)C(C)c1cc(O)c2c3c(c(=O)oc2c1)CN(Cc1ccccc1)CC3 (stereo unspecified)	0.74%
O=C(/C=C/c1ccc(O)cc1)NC1CCC(CN2CCC(c3c[nH]c4ccccc34)CC2)CC1 (stereo unspecified)	5.56%
COc1ccc(N(c2nc(-c3cc(Cl)ccc3Cl)cs2)C2CCNCC2)cc1	23.1%
O=c1c2ccccc2nc(/C=C/c2ccc([N+](=O)[O-])cc2)n1-c1ccccn1	-0%
O=C(/C=C/c1ccc(F)c(C(F)(F)F)c1)N1CCC(CN2CCC(c3c[nH]c4ccccc34)CC2)CC1	2.16%
O=C(/C=C/c1cc(F)c(F)cc1F)N1CCC(CN2CCC(c3c[nH]c4ccccc34)CC2)CC1	3.57%
CCC1CN2CCc3cc(OC)c(OC)cc3C2CC1CC1NCCc2cc(OC)c(OC)cc21 (stereo unspecified)	8.96%
CCN1CCC2(c3cccc(OC)c3)Cc3nc4ccccc4c(-c4ccccc4)c3CC2C1 (stereo unspecified)	3.62%
COC(=O)c1ccc(CC(C)NCC(O)c2cccc(SC(F)(F)F)c2)cc1 (stereo unspecified)	5%
CCC1(C)N=C(N)N=C(N)N1c1ccc(Cl)cc1 (stereo unspecified)	-0%
O=P(O)(O)Oc1c(Br)cc(Br)cc1-c1cc(Br)cc(Br)c1O	6.73%
CCOc1ccc(Br)cc1/C=C/C(=O)Nc1ccc2c(c1)C1CCC2N1C (stereo unspecified)	10.2%
COc1ccc(CC(C)NCC(O)c2cccc(C(F)(F)F)c2)cc1F (stereo unspecified)	4.38%
CN(C)c1cccc(NC(=O)N[C@H]2N=C(c3ccccc3)c3ccccc3N(CC(=O)N3CCCC3)C2=O)c1	3.2%
OC1(c2ccc(Cl)c(C(F)(F)F)c2)CCN(CCOC2c3ccccc3CSc3ccc(Cl)cc32)CC1 (stereo unspecified)	8.22%
COCCNCc1cccc(-c2ccc(CN(C(=O)Nc3ccccc3)C3CCN(Cc4ccccc4)CC3)cc2)c1	6.43%
CC(C)/C(=C(/F)CN1C(=O)C(NC(=O)c2cc3ccccc3[nH]2)C(=O)N(c2ccccc2)c2ccccc21)c1ccccc1 (stereo unspecified)	-0%
Cc1csc(NC2=NCCN2)n1	0.72%
Cc1ccccc1C1=CCN(CCCN2c3ccccc3Sc3ccc(Cl)cc32)CC1	4.86%

SMILES	IFI
Cc1ccc(CC(C)NCC(O)c2cccc(C(F)(F)F)c2)cc1F (stereo unspecified)	7.3%
CC(=O)N(Cc1cccc(-c2cccc(CNCCc3ccccc3)c2)c1)C1CCN(Cc2ccccc2)CC1	5.22%
CC1=CC(=O)[C@@H](O)[C@]2(C)[C@H]3[C@@]4(O)OC[C@@]35[C@@H](C[C@@H]12)OC(=O)C[C@H]5[C@@H](C)[C@H]4O	7.19%
c1ccc2c(NCCCCCCCCCNc3c4ccccc4nc4ccccc34)c3ccccc3nc2c1	9.77%
COc1ccc(O)c(CN2CCN(c3cc(C)ccc3C)CC2)c1	0.92%
COC(=O)/C=C/C(=O)N[C@@H]1CC[C@@]2(O)[C@H]3Cc4ccc(O)c5c4[C@@]2(CCN3CC2CC2)[C@H]1O5	0.76%
COC(=O)c1ccc(CC(C)NCC(O)c2cccc(C(F)(F)F)c2)cc1C (stereo unspecified)	0.74%
CC(=O)C1(c2ccccc2)CCN(CCC2(c3ccc(Cl)c(Cl)c3)CN(C(=O)C3CCCC3)CCO2)CC1 (stereo unspecified)	6.04%
CNCCCCCCc1ccc(CC(C)NCC(O)c2cccc(Cl)c2)cc1 (stereo unspecified)	7.97%
CC[C@H]1CN2CC[C@@H]1C[C@H]2[C@H](O)c1cc(N2CCOCC2)nc2ccc(OC)cc12	-0%
COc1ccccc1CC(C)NCC(O)c1cccc(Cl)c1 (stereo unspecified)	3.68%
CCN1CC=C(c2c[nH]c3ccccc23)CC1	0.91%
c1ccc(C(OCCC2CCN(Cc3cccc4cccnc34)CC2)c2ccccc2)cc1	3.1%
COC(=O)C(C)(C)c1ccc(CC(C)NCC(O)c2cccc(C(F)(F)F)c2)cc1 (stereo unspecified)	8.82%
CC(=O)C1(c2ccccc2)CCN(CCC2(c3ccc(Cl)c(Cl)c3)CN(C(=O)c3cccc(Cl)c3)CCO2)CC1 (stereo unspecified)	4.83%
COc1ccc(CN2CCN(CCOC(c3ccccc3)c3ccc(Cl)cc3)CC2)c(O)c1 (stereo unspecified)	3.52%
Cc1cccc2c(C3CCN(CC4CCC(NC(=O)/C=C/c5ccc(Cl)c(Cl)c5)CC4)CC3)c[nH]c12 (stereo unspecified)	9.86%
CCCCCCCc1cc(O)c2c3c(c(=O)oc2c1)CN(C)CC3	-0%
COc1ccc2[nH]cc(C3CCN(Cc4ccc(NC(=O)c5ccc(-c6ccccc6)cc5)cc4)CC3)c2c1	5.63%
Cc1cc(NC(=O)[C@@H](Nc2ccc(C#N)c3ccccc23)C2CCCCC2)ccc1F	3.85%
O=S(=O)(NC1CCC(CN2CCC(c3c[nH]c4ccccc34)CC2)CC1)c1ccc(Cl)c(Cl)c1 (stereo unspecified)	4.23%
COCC(=O)N(Cc1ccccc1-c1ccc(CNCCc2ccccc2)cc1)C1CCN(Cc2ccccc2)CC1	8.21%

SMILES	IFI
OC(CNC12CC3CC(CC(C3)C1)C2)c1cccc(C(F)(F)F)c1 (stereo unspecified)	-0%
CN1CC=C(c2c[nH]c3ccc(OC(=O)c4ccccc4)cc23)C1	-0%
O=C(CCc1ccc(Cl)cc1Cl)NC1CCC(CN2CCC(c3c[nH]c4ccccc34)CC2)CC1 (stereo unspecified)	5.38% and 4.58%
Cc1ccc(CC(C)NCC(O)c2cccc(Br)c2)cc1 (stereo unspecified)	6.52%
O=C(NC1CCC(CN2CCC(c3c[nH]c4ccccc34)CC2)CC1)c1cc2ccccc2o1 (stereo unspecified)	4.96%
O=C(NC1CCC(CN2CCC(c3c[nH]c4ccccc34)CC2)CC1)C1(O)c2ccccc2-c2ccccc21 (stereo unspecified)	3.01%
CC[C@H]1CN2CC[C@H]1C[C@@H]2[C@H](O)c1ccnc2ccc(O)cc12	2.36%
CSc1nccc(-c2ccc(S(=O)(=O)NC3CCC(CN4CCC(c5c[nH]c6ccccc56)CC4)CC3)s2)n1 (stereo unspecified)	9.93% and 9.09%
Cc1c(C)c2c(c(C)c1O)CC[C@](C)(C(=O)NC1CCC(CN3CCC(c4c[nH]c5ccccc45)CC3)CC1)O2 (stereo partly specified)	9.92% and 6.87%
CC(C)C[C@H](Nc1ccc(C#N)c2ccccc12)C(=O)N[C@@H]1CCCc2ccccc21	2.91%
Cc1cc(-c2ncc[nH]2)ccc1-c1ccc(C(=O)N2CCc3cc4c(cc32)C2(CCN(C)CC2)CO4)cc1	2.96%
CC(C)CNCc1cccc(-c2cccc(CN(C(=O)Nc3ccccc3)C3CCN(Cc4ccccc4)CC3)c2)c1	9.15%
CCCCCCC(C)(C)c1cc(O)c2c3c(c(=O)oc2c1)CCN(Cc1ccccc1)C3	2.22%
O=C(CCc1ccco1)NC1CCN(CC2(c3ccc(Cl)cc3)CCC2)CC1	8.11%
CN(C)CCc1c[nH]c2ccc(C(=O)Nc3ccc(-c4ccncc4)cc3)cc12	5.19%
OC(CNC1CCCCC1)c1ccc(Cl)c(Cl)c1 (stereo unspecified)	-0%
Cc1[nH]c2cc(F)ccc2c1C1=CCN(CCCCC2(C)C(=O)Nc3ccccc32)CC1 (stereo unspecified)	2.19%
N#Cc1ccc(N(CC(=O)NCCc2ccc(F)cc2)CC2CC2)c2ccccc12	5.67%
Cc1ccc(CC(C)NCC(O)c2cccc(C#N)c2)cc1 (stereo unspecified)	5.26%
COc1ccc(CC(C)NCC(O)c2ccc(Cl)c(Cl)c2)cc1 (stereo unspecified)	5.11%
CCN(CC)CCN1C(=O)C(O)(c2ccccc2Cl)c2c1cc(C(N)=O)cc2C(F)(F)F (stereo unspecified)	0.71%
O=C1NCN(c2ccc(O)cc2)C12CCN(CCCC(c1ccc(F)cc1)c1ccc(F)cc1)CC2	4.32%

SMILES	IFI
CN1CC=C(c2c[nH]c3ccc(Sc4ccccc4)cc23)CC1	3.7%
O=C(Nc1cc(C(F)(F)F)cc(C(F)(F)F)c1)NC1CCC(CN2CCC(c3c[nH]c4ccccc34)CC2)CC1 (stereo unspecified)	2.86% and 9.09%
CCCN(CC(=O)NCCc1ccccc1)c1ccc(C#N)c2ccccc12	6.29%
CC[C@H]1CN2CC[C@@H]1C[C@H]2[C@H](O)c1cc(-c2cccnc2)nc2ccc(OC)cc12	2.05%
CS(=O)(=O)Nc1ccc2[nH]cc(C3CCN(CC4CCC(NC(=O)/C=C/c5ccccc5Cl)CC4)CC3)c2c1 (stereo unspecified)	2.13%
COCC(=O)N(Cc1cccc(-c2ccc(CNCCc3ccccc3)cc2)c1)C1CCN(Cc2ccccc2)CC1	7.59%
CC(Cc1ccc(C(C)(C)C)cc1)NCC(O)c1ccccc1 (stereo unspecified)	5.22%
Cn1c(C2CC3CCC(C2)N3CC2CCC(NC(=O)/C=C/c3ccc(Cl)c(Cl)c3)CC2)nc2ccccc21 (stereo unspecified)	6.12%
O=C(Nc1ccccc1Cl)NC1CCC(CN2CCC(c3c[nH]c4ccccc34)CC2)CC1 (stereo unspecified)	3.65% and 4.9%
CNCCCN(C)C(=O)Oc1c(Br)c(C)nc(C)c1-c1ccc(Oc2ccc(OC(F)(F)F)cc2)cc1	7.41%
CC[C@H]1CN2CC[C@@H]1C[C@H]2[C@H](O)c1cc(N2CCC(O)(c3ccccc3)CC2)nc2ccc(OC)cc12	3.79%
CC[C@H]1CN2CC[C@H]1C[C@H]2[C@H](O)c1cc(N2CCC3CCCCC3C2)nc2ccc(OC)cc12 (stereo partly specified)	14.2%
OC(CNC1CCCCCCC1)c1ccc(Cl)c(Cl)c1 (stereo unspecified)	2.14%
COc1ccc(-c2ccccc2)cc1NC(=S)NC1CCC(CN2CCC(c3c[nH]c4ccccc34)CC2)CC1 (stereo unspecified)	8.7% and 9.93%
O=C(NC1CCN(CCc2c[nH]c3ccc(F)cc23)CC1)c1ncc(-c2ccccc2)[nH]1	0.72%
Cn1cc(CN2CCC(CCOC(c3ccccc3)c3ccccc3)CC2)cn1	3.88%
CC[C@H]1CN2CC[C@@H]1C[C@H]2[C@H](O)c1ccnc2ccc(Cl)cc12	-0%
O=[N+]([O-])c1ccc(Oc2c(Cl)cc(S(=O)(=O)N3CCC(CN4CCC(c5c[nH]c6ccccc56)CC4)CC3)cc2Cl)c(Cl)c1	2.82%
CC[C@H]1CN2CC[C@H]1C[C@H]2[C@H](OC(=O)c1ccccc1)c1cc(C#N)nc2ccc(OC)cc12	1.49%
CCC1=C[C@@H]2CN(C1)Cc1c([nH]c3ccccc13)[C@@](C(=O)OC)(c1cc3c(cc1OC)N(C)[C@H]1[C@@](O)(C(=O)OC)[C@H](O)[C@]4(CC)C=CCN5CC[C@]31[C@@H]54)C2	5.07%

Source: ChEMBL document CHEMBL1157539, “Thousands of chemical starting points for antimalarial lead identification” (Nature, 2010)
